Out of some 310,000 compounds screened, about 18,000 (5.8%) were called active. The shares of active, inactive and inconclusive entries below differ from those in the screen. Calls come from the whole dose curve; as a rule, active = well fitted inhibition curve with a large enough effect; inconclusive = small, poorly fitted or top-dose-only effect, or another doubt; inactive = no such curve, though single readings can be large or run the other way. Potencies of inconclusive entries are left out as doubtful fits.
test: Primary qHTS for delayed death inhibitors of the malarial parasite plastid, 48 hour incubation; conditions: P. falciparum luciferase growth in erythrocytes; series mostly up to 28.7 µM; activity change, negative = inhibition: at the top concentration
How it was run: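 Luciferase-expressing P. falciparum in infected erythrocytes (2% hematocrit, 0.1% parasitemia final) in RPMI 1640/0.5% Albumax were exposed to compound for 48 hours at 37 C, 5% CO2; growth read as luminescence.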
% is set by controls: 0 for no effect and ±100 for the full control effect; potency is the fitted concentration of half-maximal effect; tags give direction and shape of the fitted curve.

Which Potency does the source give for `C#CCNC(=O)C1=C[C@@H](c2coc3ccccc3c2=O)[C@H](CCCO)[C@@H](OCC)O1` here?
The Potency was inconclusive [inhibitor, partial curve, poor fit].

Which Potency does the source give for `CC1(C)C(c2cccs2)=[N+]([O-])C2(CCCCC2=O)N1O` (stereo unspecified) here?
Its Potency is inconclusive [inhibitor, single point].

Which Potency does the source give for `COc1ccc(C2Nc3cccc4cccc(c34)N2)cc1Br` here?
The Potency was active: 10.4 µM.

For `Cc1ccc(NS(=O)(=O)c2cccc3nsnc23)cc1[N+](=O)[O-]`, which Potency is on record?
The Potency was inconclusive [inhibitor, partial curve, poor fit].

For `Clc1cc2c(cc1/C=N/Nc1nc(N3CCOCC3)nc(N3CCOCC3)n1)OCO2`, which Potency is on record?
Its Potency is inconclusive [inhibitor, partial curve].

With `CC(C)(C)OC(=O)[C@H]1[C@H](c2ccc([N+](=O)[O-])cc2)C2(C(=O)c3ccccc3C2=O)C2c3ccccc3C=NN21` (stereo partly specified) as the compound, how does the Potency read?
Its Potency is active: 13.1 µM.

Which Potency does the source give for `Cc1csc2nc(O)c(C(=O)NCC3CCCO3)c(=O)n12` (stereo unspecified) here?
The Potency was inconclusive [inhibitor, single point].

Which Potency does the source give for `C/C(=N\NC(=O)c1c(Cl)c(C)nn1C)c1cccc(NC(=O)c2cccc(F)c2)c1` here?
Its Potency is inconclusive [inhibitor, full curve, poor fit].

Which Potency does the source give for `NS(=O)(=O)c1cc(C(=O)NCC2CCCCC2)ccc1Cl` here?
Its Potency is inconclusive [inhibitor, full curve, poor fit].

For `COc1ccc(C(=O)NCc2cccnc2)cc1S(=O)(=O)N1CCCc2ccccc21`, which Potency is on record?
Its Potency is inconclusive [inhibitor, single point].

Which Potency does the source give for `COc1ccc(CCNC(=O)C(=O)Nc2ccc3nc4n(c(=O)c3c2)CCCCC4)cc1OC` here?
The Potency was inconclusive [inhibitor, partial curve].

For `c1ccc(OCCSc2nc3ccccc3[nH]2)cc1`, which Potency is on record?
The Potency was inconclusive [inhibitor, single point].

For `CON(C)c1nc(OCCNC(=O)OCc2ccc(Cl)cc2C)nc(N(C)C)n1`, which Potency is on record?
The Potency was inconclusive [inhibitor, single point].

For `Cc1cc(=O)[nH]c(SCC2COC3(CCCCC3)O2)n1` (stereo unspecified), which “activity change, negative = inhibition” value is on record?
Its value is inactive: -9.81%.

For `COc1ccc(Nc2nc(NCc3ccco3)nc(N/N=C/c3ccccc3)n2)cc1`, which Potency is on record?
The Potency was active: 1.85 µM.

Which Potency does the source give for `C=CCNC(=S)N/N=C/c1ccccc1OCCOc1ccccc1` here?
The Potency was inconclusive [inhibitor, partial curve].

With `C[C@H](O)c1[nH]c2cc(F)ccc2c1[C@H](C)O` as the compound, how does the Potency read?
The Potency was inconclusive [inhibitor, single point].

Which Potency does the source give for `CSc1ccccc1NC(=O)c1ccc(N2CC3CC(C2)c2cccc(=O)n2C3)c(NC(=O)c2ccncc2)c1` (stereo unspecified) here?
Its Potency is active: 9.28 µM.

For `CC(C(=O)Nc1ccccn1)(c1ccccc1)c1ccccc1`, which Potency is on record?
Its Potency is inconclusive [inhibitor, partial curve, poor fit].

With `COc1ccc(CCNC(=O)Nc2cccs2)c(OC)c1` as the compound, how does the Potency read?
Its Potency is inconclusive [inhibitor, partial curve, poor fit].

Which Potency does the source give for `COc1ccc(C(=O)N2CC(=O)Nc3ccc(C)cc3C2c2ccccc2)cc1` (stereo unspecified) here?
The Potency was inconclusive [inhibitor, single point].

For `c1ccc2c(CCNC3CCCCC3)c[nH]c2c1`, which Potency is on record?
The Potency was inconclusive [inhibitor, single point].

With `CN(C)/N=C/c1cc([N+](=O)[O-])ccc1O` as the compound, how does the Potency read?
The Potency was inconclusive [inhibitor, single point].

With `CC(=O)N(O)CCCCCNC(=O)CCC(=O)N(O)CCCCCNC(=O)CCC(=O)N(O)CCCCCN` as the compound, how does the Potency read?
The Potency was inconclusive [inhibitor, single point].

With `O=C(NC1CCN(Cc2ccccc2)CC1)c1ccccc1OCc1ccccc1` as the compound, how does the Potency read?
The Potency was inconclusive [inhibitor, single point].

For `COc1cccc(C(=O)OCCN2CCOCC2)c1`, which “activity change, negative = inhibition” value is on record?
Its value is inactive: 15.4%.

With `Cc1ccc2nc(C)cc(C(=O)N3CCCC(CO)(Cc4ccccc4C)C3)c2c1` (stereo unspecified) as the compound, how does the Potency read?
The Potency was inconclusive [inhibitor, partial curve].

Which Potency does the source give for `Cc1cccc(N2C(=O)N3[C@@H]4c5ccccc5OC[C@@H]4[C@@H](c4ccccc4)[C@@]3(C)C2=O)c1` here?
Its Potency is inconclusive [inhibitor, partial curve].

With `COc1ccc(CN2CCCC(C(=O)c3ccc(Cl)cc3)C2)c(O)c1` (stereo unspecified) as the compound, how does the Potency read?
The Potency was active: 0.828 µM.

With `O=C(NC1CCCCCCC1)c1c(O)c2ccccc2[nH]c1=O` as the compound, how does the Potency read?
Its Potency is inconclusive [inhibitor, full curve].

Which Potency does the source give for `Cc1ccc(CCN2C(Nc3ccccc3)=NC[C@@H]2C)cc1` here?
Its Potency is inconclusive [inhibitor, single point].

Which “activity change, negative = inhibition” value does the source give for `CCOC(=O)c1cc2c(=O)c3cc(C)ccc3oc2nc1C` here?
The value was inactive: 245%.

With `O=C(/C=C/c1ccc(S(=O)(=O)N2CCOCC2)cc1)NC(=S)NCCCn1ccnc1` as the compound, how does the Potency read?
The Potency was inconclusive [inhibitor, partial curve, poor fit].

Which Potency does the source give for `Cc1ncc(C[n+]2csc(CCOC(=O)CC34CC5CC(CC(C5)C3)C4)c2C)c(N)n1` here?
The Potency was inconclusive [inhibitor, partial curve, poor fit].

Which Potency does the source give for `COc1ccc(-c2nnc3ccc(SC(C(C)=O)C(C)=O)nn23)cc1OC` here?
The Potency was active: 9.28 µM.

Which Potency does the source give for `Cc1ccc(C)n1-c1ccc(N2CCOCC2)c([N+](=O)[O-])c1` here?
Its Potency is inconclusive [inhibitor, single point].

Which Potency does the source give for `O=C(CN1C(=O)NC2(CCCC2)C1=O)Nc1cc(Cl)ccc1N1CCOCC1` here?
The Potency was inconclusive [inhibitor, single point].

Which Potency does the source give for `Cc1ccc(S(=O)(=O)c2nc(S(=O)(=O)c3ccccc3)sc2N2CCN(C)CC2)cc1` here?
The Potency was inconclusive [inhibitor, partial curve].

For `Cc1nn(-c2ccccc2)c2nc(-c3ccncc3)cc(C(=O)NCc3ccco3)c12`, which Potency is on record?
Its Potency is active: 3.7 µM.

With `Cc1cccc(NC(=S)N2CCn3cccc3C2c2cccnc2)c1` (stereo unspecified) as the compound, how does the Potency read?
Its Potency is inconclusive [inhibitor, single point].

For `CC(=O)Nc1ccnc(-c2cccnc2)n1`, which “activity change, negative = inhibition” value is on record?
Its value is inactive: 10.8%.
